The record followed here is publication PMC6919601, “Identification of Plasmodium dipeptidyl aminopeptidase allosteric inhibitors by high throughput screening” (PLoS ONE, 2019).

Out of some 110,000 compounds screened, about 230 (0.21%) showed an effect of 50% or more. The list shows a part of the results.
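Also: 30 min substrate incubation versus DMSO and 10 µM JCP410 controls.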

Chain of DPAP1 (Q8IIJ9 whole entry, looked up): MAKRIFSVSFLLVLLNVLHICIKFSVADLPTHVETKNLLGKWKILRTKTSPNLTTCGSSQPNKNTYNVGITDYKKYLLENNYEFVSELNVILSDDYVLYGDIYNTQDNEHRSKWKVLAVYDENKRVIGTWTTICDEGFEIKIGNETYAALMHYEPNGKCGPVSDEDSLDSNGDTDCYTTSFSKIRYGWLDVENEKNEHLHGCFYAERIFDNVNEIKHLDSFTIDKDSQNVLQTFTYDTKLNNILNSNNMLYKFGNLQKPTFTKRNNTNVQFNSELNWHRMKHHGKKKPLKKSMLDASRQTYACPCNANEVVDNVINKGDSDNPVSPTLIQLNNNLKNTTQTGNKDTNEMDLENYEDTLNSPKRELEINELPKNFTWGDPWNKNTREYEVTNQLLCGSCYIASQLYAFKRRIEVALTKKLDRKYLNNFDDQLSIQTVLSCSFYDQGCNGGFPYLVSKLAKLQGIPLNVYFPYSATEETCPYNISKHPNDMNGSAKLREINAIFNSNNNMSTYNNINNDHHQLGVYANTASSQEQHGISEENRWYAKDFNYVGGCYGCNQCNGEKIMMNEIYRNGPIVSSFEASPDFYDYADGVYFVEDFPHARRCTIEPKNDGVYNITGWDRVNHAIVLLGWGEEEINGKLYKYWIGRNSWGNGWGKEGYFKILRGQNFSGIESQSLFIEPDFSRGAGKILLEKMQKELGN

The experiment concerns the target DPAP1 (Plasmodium falciparum, UniProt Q8IIJ9). In words: primary screen, percent inhibition; read by cleavage of a fluorogenic dipeptide substrate; higher = more effect of the substance. More on the design: species or system P. falciparum D10 trophozoite lysates; single well.
`CCOC(=O)C1CCN(Cc2ccc(OC)c(Br)c2)CC1`: the “% Inhibition @ 10 uM” value is recorded as -5.68%. Regarding `Cc1ccc2c(c1)-c1c(cnn1CC(=O)NCCCN(Cc1ccco1)C1CCCC1)CO2`, the “% Inhibition @ 10 uM” value is 2.73%. Consider `CC1CCC(C(=O)NC(Cc2c[nH]c3ccccc23)C(=O)NCCCN2CC(C)CC(C)C2)CC1` (stereo not shown), for which the “% Inhibition @ 10 uM” value is listed as -0.228%. As to `COc1ccc(/C=C/C(=O)NC(=S)Nc2cc([N+](=O)[O-])cc(Cl)c2O)cc1OC`, the “% Inhibition @ 10 uM” value is recorded as 3.47%. Turning to `O=C(c1cc(S(=O)(=O)N2CCOCC2)ccc1Cl)N1CCOCC1`, the “% Inhibition @ 10 uM” value is reported as 8.06%. Consider `N#CCNC(=O)[C@@H](Cc1ccc(I)cc1)NC(=O)OCc1ccccc1`, for which the “% Inhibition @ 10 uM” value is given as -6.56%.

On to `CCCCc1c(O)c2cccc3c2n(c1=O)CCC3`, for which the “% Inhibition @ 10 uM” value turned out to be 7.33%. As for `COc1ccc(CNC(=O)c2cc3c(C)nccc3nc2O)cc1`, the figure is 4.47%; as for `O=C(O)c1ccc([N+](=O)[O-])c2c1NCC1CC=CC21` (stereo not shown), -3.09%. As for `C=CCN1CC(=O)C(c2nc3ccccc3[nH]2)=C1N`, the figure is 2.14%. The figure for `CC1CC(=O)C2=C(C1)OC(N)=C(C#N)C2c1ccco1` (stereo not shown) is -4.02%; for `CCc1n(CC(O)COc2cccc(Cl)c2)c2ccccc2[n+]1C` (stereo not shown) it is 2.95%. As to `CC1=[N+](CCCS(=O)(=O)O)SC2C=CC(Cl)=CC12` (stereo not shown), the “% Inhibition @ 10 uM” value is -2.91%. For the compound `O=C(C1CCN(S(=O)(=O)N2CCC3(CC2)OCCO3)CC1)N1CCCCC1`, the “% Inhibition @ 10 uM” value is reported as -8.73%. The figure for `Cc1cc(NC(=O)Cn2cnc3onc(-c4ccc(Cl)cc4)c3c2=O)no1` is -1.51%; for `Cc1cc(C)nc(NS(=O)(=O)c2ccc(NC(=O)CSc3nc(C)cc(C)n3)cc2)n1` it is -7.08%; for `O=C1CC(c2ccccc2Cl)Cc2nc(NC3CC3)ncc21` (stereo not shown) it is 3.87%. As for `CCN1CCC(N2CCN(c3ccc(Cl)cc3)CC2)CC1`, the figure is -5.9%; as for `COc1cccc(-c2[nH]nc3c2C(c2ccc(O)cc2)NC3=O)c1` (stereo not shown), -3.35%; as for `Cc1c(C(=O)NCc2ccc3c(c2)OCO3)oc2ccc3c(c12)C=CC(C)(C)O3`, 5.2%. Regarding `Cc1n[nH]c(SCC(=O)Nc2ncccn2)n1`, the “% Inhibition @ 10 uM” value was -1.68%. As for `O=C(/C=C/c1ccc(-c2cccc([N+](=O)[O-])c2)o1)c1ccccc1`, the figure is 2.76%. The figure for `Cc1ccc(-c2c(NCCCN3CCN(C4CCCCC4)CC3)c(=O)c2=O)cc1C` is 1.97%; for `CCOc1ccccc1C1C(C(=O)Nc2ccc(F)cc2)=C(C)Nc2ncnn21` (stereo not shown) it is -9.02%. As for `CCCSc1nnc2c(n1)OC(c1ccc(C(C)C)cc1)Nc1ccccc1-2` (stereo not shown), the figure is 3.61%; as for `CCC(C)(C)C1CCc2nc3sc(C(=O)Nc4ccccc4C(N)=O)c(N)c3cc2C1` (stereo not shown), -6.27%. As for `CC1CCN(CC(O)Cn2c3ccc(Cl)cc3c3cc(Cl)ccc32)CC1` (stereo not shown), the “% Inhibition @ 10 uM” value is recorded as 3.01%. Turning to `Cc1nn(CC(=O)NCc2ccc(OC(C)C)cc2)c(=O)c2cc3cc(F)ccc3n12`, the “% Inhibition @ 10 uM” value came out at 1.68%.

Regarding `CC(Oc1ccc(Cl)cc1Cl)C(=O)Nc1cccc(C#N)c1` (stereo not shown), the “% Inhibition @ 10 uM” value was -1.04%. Turning to `CCOC(=O)c1oc2ccc(S(=O)(=O)Nc3c(O)oc4ccccc4c3=O)cc2c1C`, the “% Inhibition @ 10 uM” value turned out to be 5.9%.

Take `CC1CC(C)CN(Cc2nc3c(c(=O)n(C)c(=O)n3C)n2CCCc2ccccc2)C1` (stereo not shown): the “% Inhibition @ 10 uM” value was -5.1%. Take `CC(C)(CO)Nc1nc(Cl)nc(N2CCOCC2)n1`: the “% Inhibition @ 10 uM” value came to 5.48%. Take `CN(Cc1ccco1)C(=O)C1CCC(CNS(=O)(=O)c2ccc(Cl)cc2)CC1` (stereo not shown): the “% Inhibition @ 10 uM” value is -4.53%. As for `Cc1ccc(NC(=O)C2=C(O)CCn3c2nc2ccccc23)cc1`, the figure is -2.55%; as for `CC(C)C(=O)Nc1c2c(nc3c1CCC3)CCCC2`, 0.345%; as for `Cc1cc(C)c2c(CC(=O)Nc3nc(C)c(C(=O)OCC(C)C)s3)coc2c1`, 2.62%. The figure for `CCOc1ccc2oc(=O)cc(CN3CCN(c4ncccn4)CC3)c2c1` is -1.71%; for `COc1ccc2[nH]c(C)c(CCN3C(=O)OC4(CCCCC4)C3(C)O)c2c1` (stereo not shown) it is -0.25%. As for `Clc1ccccc1/C=C/c1nn2c(-c3ccco3)nnc2s1`, the figure is -1.31%; as for `CC(C)(C)N1C(=O)NC(=O)/C(=C\c2c(Cl)cccc2Cl)C1=O`, 11.8%. In the case of `COc1ccc(C2NC(=O)C(C#N)=C(S)N2c2ccccc2)cc1` (stereo not shown), the “% Inhibition @ 10 uM” value worked out at 5.18%. `Cc1ccc(-c2cnc3ccccc3n2)c(C)c1`: the “% Inhibition @ 10 uM” value is 1.9%. The figure for `CCN(CC)C(=O)c1sc(NC(=O)c2c(-c3ccccc3)noc2C)c(C#N)c1C` is -3.26%; for `CC(=O)c1cccc(NC(=O)C2C3CC/C=C\CC/C=C/CCC32)c1` (stereo not shown) it is 4.96%. Regarding `COc1ccc(C2(C(=O)Nc3ccc(OC)cc3OC)CCCC2)cc1`, the “% Inhibition @ 10 uM” value is 3.29%. In the case of `CCc1ccc(-c2nc(CSCC(=O)NCc3ccccc3Cl)c(C)o2)cc1`, the “% Inhibition @ 10 uM” value is given as 3.99%. As for `Cc1cccc(C(=O)N2CCN(c3ccc([N+](=O)[O-])cc3)CC2)c1`, the figure is -5.5%.

In the case of `CCCCc1ccc(CC2[Se]C(N)=NC2=O)cc1` (stereo not shown), the “% Inhibition @ 10 uM” value is given as 5.88%. As for `Cc1ccc(/C=C2\SC(N3CCOCC3)=NC2=O)o1`, the figure is -1.6%; as for `CC(NC(=O)C1CCCN(S(=O)(=O)N(C)C2CCCCC2)C1)c1ccc2c(c1)OCCO2` (stereo not shown), -1.67%; as for `CC(C)(C)c1cc(C(F)(F)F)n2ncc(-c3ccccc3)c2n1`, 0.275%. Regarding `COc1ccc(N2C(=O)c3ccc(C)cc3C2=O)c(OC)c1`, the “% Inhibition @ 10 uM” value stood at 1.62%. The figure for `O=C(CSc1nc2c(c(=O)n1Cc1ccccc1)SCC2)NC1CCCC1` is 5.8%; for `CCOCCCNC(=O)C(c1ccccc1)N(Cc1ccc2c(c1)OCO2)C(=O)c1ccccc1O` (stereo not shown) it is -0.363%.

For `CC1(C)CC(NC(=O)c2cc3cc(Br)ccc3oc2=O)CC(C)(C)N1`, the “% Inhibition @ 10 uM” value was determined as 2.18%.

For the compound `CCc1ccc(OCC(=O)N2CCc3ccccc32)c(Br)c1`, the “% Inhibition @ 10 uM” value was determined as 4.22%. With `COc1ccc2c(c1)-c1nc(NC(=O)c3cccc(Cl)c3)sc1CC2`, the “% Inhibition @ 10 uM” value is -0.0735%. As for `COc1ccc2cc(C(=O)N3CCOCC3)sc(=O)c2c1OC`, the “% Inhibition @ 10 uM” value is -0.884%. As for `Cc1ccc(C2N[C@@H](C(=O)O)C(C)(C)S2)cc1` (stereo partly shown), the figure is -8.58%; as for `CC1=C(C(=O)OCC(C)C)C(c2ccccc2F)NC(=O)N1` (stereo not shown), 1.83%; as for `CCOc1ccc(-c2nonc2NC(=O)c2oc3ccc(C)cc3c2C)cc1`, 6.89%.

For the compound `Cc1ccc(OCC(O)CN2CCn3c4c(c5cc(C)ccc53)CCCC42)cc1` (stereo not shown), the “% Inhibition @ 10 uM” value is 2.91%.

For `Cc1nc2c(c(C)nn2C(C)(C)C)c(C)c1CCC(=O)N1CCCCCC1`, the “% Inhibition @ 10 uM” value is on record as -8.02%.

For `COc1ccc(C2Nn3c(C)nnc3SC2C(=O)NCc2ccco2)cc1` (stereo not shown), the “% Inhibition @ 10 uM” value was found to be 1.72%.

In the case of `Cc1nn(C(=O)c2cccs2)c(C)c1Sc1ccccc1`, the “% Inhibition @ 10 uM” value was found to be 10.6%. As for `CCOc1ccc(/C=C(\C#N)c2nc(-c3ccc(C)cc3C)cs2)cc1`, the figure is 0.912%; as for `COc1ccc2c(c1)C1=NN(/C(C)=C/C(C)=O)C(c3cccc([N+](=O)[O-])c3)C1CC2` (stereo not shown), 23.7%. As for `O=c1oc2ccc(Br)cc2cc1-c1ccccc1`, the “% Inhibition @ 10 uM” value is on record as -0.969%.

Turning to `COc1ccc(CN2CCN(Cc3cccc(Cl)c3)CC2)cc1`, the “% Inhibition @ 10 uM” value is recorded as -0.914%.

On to `CCOc1ccccc1C1CC(=O)NC(C)=C1C(=O)OC1CCCC1` (stereo not shown), for which the “% Inhibition @ 10 uM” value is given as 2.54%.

As for `CCC/N=C(\C)c1c(CCC)nn(-c2nc3ccccc3s2)c1O`, the “% Inhibition @ 10 uM” value is 4.33%. The figure for `Cc1sc(NC(=O)c2ccco2)c(C#N)c1C` is 1.84%. As for `CC(=O)N1CCN(c2ccc(NC(=O)Cc3ccccc3)cc2)CC1`, the figure is 14.6%; as for `CCN(Cc1ccccc1)C(=O)c1ccc(C)cc1`, 0.135%. As for `CSc1nsc(SC)c1NC(=O)OC1CCCCC1`, the figure is 1.46%; as for `Cc1cc(C(=O)CN2CCC(C)CC2)c(C)n1-c1ccc(F)cc1`, 0.26%. `COc1ccc(C2CNC(=O)C2C(=O)O)cc1` (stereo not shown): the “% Inhibition @ 10 uM” value is -2.42%.

In the case of `O=C(O)C1=C(c2ccccc2)OCCS1`, the “% Inhibition @ 10 uM” value is recorded as -0.0309%. For `COc1cc2c(cc1/C=C1/NC(=O)N(Cc3ccccc3)C1=O)OCO2`, the “% Inhibition @ 10 uM” value was determined as 3.27%. The figure for `CC(C)(C)c1ccc(C(CC(=O)O)NS(=O)(=O)Cc2ccccc2)cc1` (stereo not shown) is 2.72%. As for `O=C(CSc1nnc(Cc2cc(O)nc(O)n2)n1-c1ccc(F)cc1)N1CCOCC1`, the “% Inhibition @ 10 uM” value is recorded as 5.32%.

Consider `COc1ccc(/C=C2/N=C(N)SC2=O)cc1`, for which the “% Inhibition @ 10 uM” value is -1.74%. As for `C#CC(C)(CC)NC(=O)c1cc(OC)c(OC)c(OC)c1` (stereo not shown), the figure is 5.88%.

Regarding `O=C(O)c1cccc(-n2[nH]c(=O)ccc2=O)c1`, the “% Inhibition @ 10 uM” value is -3.93%. As for `O=C1NCCCc2c1oc1cc(Br)c(O)c(Br)c21`, the figure is -0.0626%. The figure for `Cc1ccc(-c2nc(CS(=O)(=O)CC(=O)NCc3cccnc3)c(C)o2)cc1` is -1.89%; for `CCC(C)NC(=O)CCc1c(C)nc2cc(-c3ccccc3OC)nn2c1C` (stereo not shown) it is 2.93%; for `Cc1cc(-c2ccc(C)c(S(=O)(=O)Nc3cccnc3)c2)on1` it is 1.15%. As for `Cc1oc2c(c1C(=O)NCCCN1CCOCC1)C(=O)c1ccccc1C2=O`, the figure is -3.53%; as for `COc1ccc(N(C(C)C(=O)Nc2ccc(Cl)cc2)S(C)(=O)=O)cc1` (stereo not shown), 1.89%; as for `COc1ccc(C2=NC3(CCNCC3)NC2=S)cc1`, -1.01%. As for `CCOC(=O)/C(C#N)=C/c1c(Oc2cccc(C)c2C)nc2ccccn2c1=O`, the “% Inhibition @ 10 uM” value is recorded as 77.8%.

Consider `O=c1/c(=C\c2ccccc2Br)sc2nnc(-c3ccccc3)n12`, for which the “% Inhibition @ 10 uM” value was 0.561%. The figure for `CCOc1ccc(CN2CCCC(O)C2)cc1` (stereo not shown) is -4.35%; for `O=C(O)CC1(CC(=O)Nc2cccc(O)c2)CCCC1` it is 4.39%. The figure for `Cn1cc(C=C2C(=O)OC3(CCCCC3)OC2=O)c2ccccc21` is -1.47%. `CCOc1cc(CNCCCN2CCOCC2)ccc1OCC(=O)NC(C)(C)C`: the “% Inhibition @ 10 uM” value is -3.23%.

With `Cc1nn(CC(=O)NC(C)c2ccccc2)c(=O)c2c1sc1ccccc12` (stereo not shown), the “% Inhibition @ 10 uM” value came out at 2.65%.

Take `COc1ccc(C2C(C(=O)c3ccc4c(c3)CC(C)O4)=C(O)C(=O)N2Cc2cccnc2)c(OC)c1` (stereo not shown): the “% Inhibition @ 10 uM” value came to 4.44%.

In the case of `O=C(Nc1ccc(S(=O)(=O)NCc2ccccc2)cc1)c1ccncc1`, the “% Inhibition @ 10 uM” value is reported as -0.251%.
